# Results taken from the supplement of paper PMC11417369.
# The other results are listed elsewhere or left out.
# System: PfAP2-HC AP2 domain (GST-tagged)
# Assay: gcPBM binding intensity (ln(normalized median fluorescence intensity)); higher = stronger DNA binding
# How it was run: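 The binding buffer was 1× PBS containing 1% milk, 0.2 mg/ml BSA, 0.5% salmon testes DNA and 0.03% Triton X-100. In it, GST-tagged P. falciparum DNA-binding domains expressed in E. coli were applied for 1 h to an Agilent 4 × 180k array of primer-extended double-stranded 36-bp intergenic genomic probes plus negative controls. Binding intensity, read with Alexa488 anti-GST antibody and a 488 nm scan, is the highest Masliner-normalised natural-log median intensity across replicate spots of either probe orientation.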
row,Sequence,gcPBM binding intensity (ln)
1,AATATATCTTATTTAACACACACAAAGAAAATAGAA [CACACA_site9242],10.4
2,TATATATATATACATACATGCATATATATATATATA [TGCATGCA_site513],9.48
3,ATGAATTAATCTAATCGTACAATAAGCATTATTATA [XGTACX_site2571],9.52
4,GAATATGTAAAGAAAGGTACACATGAAAATATGTGT [XGTACX_site446],9.79
5,TGTACCTACAAAATATGATATATTTTTATAAATTGT [XGTACX_negctrl_site498],9.44
6,TAGAAAATCAGTTAAACACACACATAAAAAAAAAAA [CACACA_site8933],10.7
7,TTCTTATTTGTACTAGTGCAATAGAAAATAAATAAA [GTGCAC_site9731],9.35
8,TATATAATATATATATGTACACATTTGCAAACAATG [XGTACX_site6941],9.7
9,CTAATTCGTATATGCTGTACCTTTTTCTTACGACTA [XGTACX_site4392],10
10,ATATGGAATGATCATAGTACATAATTTAAAATTTTA [XGTACX_site3568],9.63
11,ACCCTATTTATATATACACACACATATATAAATAAA [CACACA_site8980],10
12,AACATATATAATATTTGTACTTATATACAAAATATG [XGTACX_site7502],9.64
13,TATTTTTTCTTAAACACACACATATAGATTTATAAC [CACACA_site7354],10
14,TGTCCTTATTGGCACACACACATATAAGAAATTTAA [CACACA_site5724],9.97
15,TTTTTTAAAGCCTGTTCATCATCCTTACCTATCAAC [GTGCAC_negctrl_site452],9.49
16,AAAGTATACAATGACGCATGCATATATATATACATA [TGCATGCA_site429],9.83
17,ATTTATTTATCTAGCTATTCACCATTTTCTTTTGTT [CACACA_negctrl_site1259],9.8
18,ATAGGATGTTTGCACTGTACCAAAAAATGAGCTGCA [XGTACX_site2825],9.59
19,ATCAGATATATATATTGTACATTTATATATAAATCA [XGTACX_site1960],9.52
20,ATTAAAAATTATATTTTATAAAAATTAAAAGAAATA [CACACA_negctrl_site65],9.23
21,ACTTTTTTGAACAACGTGCACGTATTCATAACAAAA,9.46
22,TTTTCTTTATTATAATGTACTCACAAATAAATATAA [XGTACX_site7298],9.39

row,Sequence,gcPBM binding intensity (ln)
1,CTATAATAGAAGTGTACACACATATTTATGTCTGTA [CACACA_site7462],9.88
2,TTTCATTTTAGAAGTACACACAAAAAATAAAATAAT [CACACA_site2141],9.8
3,AATATCACATTCCACGGTACACACTAAAAGAAAAAT [XGTACX_site7653],10.1
4,ATAAATACGATTAATTAGGTTTGTATAAATTAAATT [GTGCAC_negctrl_site635],9.53
5,TCATGTAGTAAAAACTGTACAAATTATTTATCATGT [XGTACX_site1727],9.61
6,ATAACTTTTGCGCGTACACACATTTATCCTCTTTAT [CACACA_site209],10.3
7,CTTAAAAACAAAAATGCACACATAATAAGCATATGT [CACACA_site9149],9.79
8,ATTAAACTCATTAAGAGTACAGATAACATTAAAGTA [XGTACX_site8697],9.61
9,TGAAATTAGATATATACACACATATAGATTTATATG [CACACA_site7619],9.84
10,AAAATTGTGAAAGGGAAGATGATCAAATTGTTAAGG [CACACA_negctrl_site1492],9.8
11,TATAATGGTAAAAACACACAAATATGAAGATGTTAA [CACACA_site6479],9.83
12,GATGGGCAAATTTACTGTACTTTTATAATATTTTTT [XGTACX_site4830],9.78
13,AAAAAAAATTATATTTGTACGCATTAAAAAATCTAA [XGTACX_site1616],9.45
14,GTACCTATAAATATTACACACATTTTCATTTTTAAC [CACACA_site7022],9.88
15,TTAAAAAAAAATAAAGGTACACGGAGAAATCCTTTT [XGTACX_site7509],9.39
16,ATATATTTATTATTAGGTACACATATATATATATAT [XGTACX_site5045],9.79
17,AACCACCACACCATCACACATAAGATTAGACGAGTA [CACACA_site6063],9.97
18,TTATATAGAATTAATTTCTTTTTTTTCTTTTTTAAA [CACACA_negctrl_site1308],9.29
19,TGTAGTAATGCTTATTGTACATATACATTTCTTACA [XGTACX_site219],9.64
20,ATTTTTTTTTTTTTTTCATGAAATTTTTTTTTTTTT [CACACA_negctrl_site1069],9.67
21,AAATATTTTTTAATTGTTCACTTGGTGGATCATTAA [CACACA_negctrl_site922],9.41
22,TATCCATTATTTAAAAGTACAAAAAACGATTTACAC [XGTACX_site2979],9.51
